# Measurements taken from PMC4336329 (PLoS ONE, 2015).
# Screen size: about 310,000 compounds; about 2,200 (0.71%) showed an effect of 50% or more. The effect is printed as a negative number. This is one part of the list.
# Target: human ether-à-go-go-related gene (hERG) potassium channel (human, UniProt Q12809)
# Assay: primary screen, population patch clamp on CHO cells stably expressing hERG
# human ether-à-go-go-related gene (hERG) potassium channel, sequence (Q12809 whole entry, looked up): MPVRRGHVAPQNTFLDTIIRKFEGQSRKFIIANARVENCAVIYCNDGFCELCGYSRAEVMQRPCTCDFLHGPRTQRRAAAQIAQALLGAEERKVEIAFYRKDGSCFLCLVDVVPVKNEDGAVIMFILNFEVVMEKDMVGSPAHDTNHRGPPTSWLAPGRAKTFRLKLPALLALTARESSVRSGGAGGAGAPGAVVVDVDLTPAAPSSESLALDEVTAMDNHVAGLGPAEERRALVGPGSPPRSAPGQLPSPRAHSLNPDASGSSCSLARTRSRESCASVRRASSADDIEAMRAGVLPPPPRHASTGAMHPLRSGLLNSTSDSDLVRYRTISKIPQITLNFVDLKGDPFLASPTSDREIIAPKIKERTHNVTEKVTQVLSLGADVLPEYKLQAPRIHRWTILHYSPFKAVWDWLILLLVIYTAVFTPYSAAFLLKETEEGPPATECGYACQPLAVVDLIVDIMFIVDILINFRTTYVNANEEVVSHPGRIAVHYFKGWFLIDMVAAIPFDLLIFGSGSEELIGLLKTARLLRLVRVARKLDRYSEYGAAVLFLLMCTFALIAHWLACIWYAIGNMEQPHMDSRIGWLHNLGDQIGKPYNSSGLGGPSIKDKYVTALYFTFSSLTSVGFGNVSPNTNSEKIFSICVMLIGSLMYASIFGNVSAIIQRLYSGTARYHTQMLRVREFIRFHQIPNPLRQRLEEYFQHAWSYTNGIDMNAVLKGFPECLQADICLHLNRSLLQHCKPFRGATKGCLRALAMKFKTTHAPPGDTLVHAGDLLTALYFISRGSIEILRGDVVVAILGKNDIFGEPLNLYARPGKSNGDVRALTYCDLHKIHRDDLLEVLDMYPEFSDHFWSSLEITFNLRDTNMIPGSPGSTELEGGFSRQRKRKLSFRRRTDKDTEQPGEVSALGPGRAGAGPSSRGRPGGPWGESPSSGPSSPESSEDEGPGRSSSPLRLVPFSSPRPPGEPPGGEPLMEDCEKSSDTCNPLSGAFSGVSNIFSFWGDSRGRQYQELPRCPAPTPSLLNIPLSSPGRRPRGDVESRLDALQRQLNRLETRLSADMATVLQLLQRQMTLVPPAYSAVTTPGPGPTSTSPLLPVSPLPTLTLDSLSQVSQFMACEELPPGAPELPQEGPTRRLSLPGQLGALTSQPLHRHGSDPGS
row,SMILES,"hERG current change (%, negative = inhibition) at 1uM [%]"
1,CCC1CCCCN1CCNC(=O)CCS(=O)(=O)c1ccc(Br)cc1 (stereo not shown),-4.9
2,CC(CCc1ccccc1)NC(=O)[C@@H]1Cc2ccccc2CN1.Cl (stereo partly shown),6.57
3,COc1ccc(/C=N/NC(=O)c2cc[n+]([O-])cc2)cc1OC,22.9
4,O=C(N/N=C/c1ccc(Cl)cc1)c1sccc1OCc1ccc(F)cc1,20.5
5,COCCCNC(=O)CN1C(=O)/C(=C/c2ccccc2C)Sc2ccccc21,7.95
6,COc1ccc(OC)c(NC2=C(Cl)C(=O)N(Cc3ccccc3)C2=O)c1,6.27
7,CCc1nnc(NC(=O)CCC(=O)N2CCN(C3CCCCC3)CC2)s1,5.37
8,CC1CCN(C(=O)CNC(=O)Cc2ccccc2)CC1,1.45
9,O=C(C1CCCN(S(=O)(=O)c2cccc3nsnc23)C1)N1CCCCCC1 (stereo not shown),3.37
10,Cc1c(C#N)c(=O)c(-[n+]2ccccc2)c([S-])n1-c1ccc(Cl)cc1,7.31
11,CCC(=O)N1CCc2cc(S(=O)(=O)NCCC(=O)NCc3ccc(F)cc3)ccc21,3.39
12,O=C(COc1ccc(-c2ccccc2)cc1)NN=C1CCCC1,5.37
13,COc1ccc(NC(C)=O)c(C)c1,14
14,CC(C)Cn1c(N)c(C(=O)COC(=O)C2CCCCC2)c(=O)n(C)c1=O,-4.5
15,Cc1csc(C(=O)O)c1NC(=O)c1cccc([N+](=O)[O-])c1,7.95
16,Cc1nc2cc(NC(=O)NCc3ccco3)ccc2n1C,11.9
17,COc1ccc(CN(CC(=O)NCCC(C)C)C(=O)CCC(=O)Nc2nccs2)cc1,8.41
18,COc1ccc(C(=O)N2CCC(C(=O)NCc3ccccn3)CC2)cc1,-5.12
19,NC(=O)CC(NC(=O)Cc1ccc(Cl)cc1)c1ccc(NC2CCCCCC2)c([N+](=O)[O-])c1 (stereo not shown),11.2
20,O=C(O)C1CCCN1C(=O)C12CC3CC(CC(C3)C1)C2 (stereo not shown),11.9

row,SMILES,"hERG current change (%, negative = inhibition) at 1uM [%]"
1,Cl.FC(F)(F)Oc1ccc(Nc2nc(N3CCOCC3)nc(N3CCOCC3)n2)cc1,-3.04
2,O=C(Oc1ccc(Oc2ccccc2)cc1)N1CCC(O)CC1,17.1
3,O=C(Nc1cccc2c1CCCC2)C1CCCN(S(=O)(=O)c2cccc3nonc23)C1 (stereo not shown),4.31
4,CCOc1ccc2nc(NC(=O)COc3ccc(N(C)S(=O)(=O)c4ccc(C)cc4)cc3)sc2c1,18
5,O=C(NCc1ccco1)c1cccc(S(=O)(=O)N2CCOCC2)c1,-3.55
6,CC1CC(C)CN(C(=O)CCNC(=O)Cn2cnc3ccccc3c2=O)C1 (stereo not shown),18.3
7,Nc1c(Sc2ccccc2)c(=O)[nH]c(=O)n1Cc1ccccc1,-13.3
8,COc1ccc2c(Cl)c(-c3nnc(SCC(N)=O)n3C)sc2c1,15.5
9,CC(C)C(NC(=O)CCNC(=O)c1ccc(C(C)(C)C)cc1)c1nc2ccccc2[nH]1 (stereo not shown),8.67
10,CC(C)(C)CC(=O)N[C@@H](Cc1ccccc1)c1nc2ccccc2[nH]1,16.2
11,O=C(Nc1cnc2ccccn2c1=O)c1ccc(Cl)cc1Cl,13.9
12,CN(C)CCNC(=O)Nc1cccc(Cl)c1Cl,-1.43
13,N=C1C(=O)OCC1c1ccccc1NC(=O)CN1CCOCC1 (stereo not shown),17.5
14,Cc1nn(C)c(C)c1S(=O)(=O)N1CCC(C(=O)NCCC2=CCCCC2)CC1,7.39
15,CCCCC(CC)C(=O)NCC(C)NC(=O)C(CC)CCCC (stereo not shown),1.69
16,CC1=Nc2cccc3cccc(c23)N1,6.9
17,O=C(Cc1cnc2ncnn2c1)N1CCc2c([nH]c3ccccc23)C1c1ccccc1F (stereo not shown),14.4
18,Cc1nc2ccc(S(=O)(=O)Nc3cc(-c4nc5cccnc5s4)ccc3C)cc2s1,4.41
19,COC(=O)c1cc(NC(=O)CN2C(=O)CSC2=O)ccc1Cl,4.34
20,COCCn1c(SCC(=O)Nc2cc(C)on2)nc2cc(Cl)ccc2c1=O,4.54

row,SMILES,"hERG current change (%, negative = inhibition) at 1uM [%]"
1,O=C(O)c1cc(-c2ccccc2)n(-c2ccc(F)cc2)n1,12.5
2,COc1cc(-c2nc(C(=O)NC3CCCCC3)cc3c2[nH]c2ccccc23)cc(OC)c1OC,1.26
3,COc1ccc(Cn2nnc(C(=O)Nc3ccc(F)cc3)c2N)cc1,-1.13
4,COc1ccc(CCNC(=O)CCn2c(SCC(=O)N3CCCC3)nc3ccccc3c2=O)cc1OC,12.9
5,CCc1nnc(NC(=O)C2(C)COC(c3ccc(OC)cc3)OC2)s1 (stereo not shown),10.9
6,CCC(=O)c1ccc(OC(=O)C2CCN(C3=NS(=O)(=O)c4ccccc43)CC2)cc1,8.47
7,Cc1nc(SCC(=O)Nc2nc3ccccc3s2)c(C#N)c(C)c1C,13.5
8,COc1ncnc2sc(-c3ccccc3)cc12,11
9,CCCC(=O)Nc1nc(C(=O)OCC)cs1,16
10,CCC(CC)C(=O)Nc1ccc(-c2cn3cccnc3n2)cc1,11.4
11,CCCOc1cccc(C(=O)N(Cc2ccc(OC)c(OC)c2)C2CCS(=O)(=O)C2)c1 (stereo not shown),7.08
12,Cc1onc(-c2ccccc2)c1-c1nnc(CN2CCN(S(=O)(=O)c3ccccc3)CC2)o1,5.85
13,CC(=O)Oc1ccccc1C(=O)Nc1ccccc1,12.8
14,CCCn1c(SCC(=O)Nc2cccc(C)n2)nnc1C(C)C,14.5
15,Cc1cc(Cl)c(OCCCCN2CCOCC2)c(Br)c1,4.92
16,CC(C)=CC(=O)N1CCC(n2nccc2NC(=O)CCc2ccccc2)CC1,18.3
17,CCOC(=O)CCCc1c[nH]c2ccccc12,5.54
18,COc1cc(Br)c(C2C(C#N)=C(N)Oc3n[nH]c(-c4cccnc4)c32)cc1OC (stereo not shown),13
